SMILES strings stand for the structures. The campaign covered roughly 310,000 compounds. About 14,000 (4.5%) showed an effect of 50% or more. Effects have a minus sign here. The list shows a part of the results.
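Also: peak tail current of the secondary pulse compared with the same well before compound.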

The target of this test is human ether-à-go-go-related gene (hERG) potassium channel (human, UniProt Q12809). The test is described as follows: primary screen, population patch clamp on CHO cells stably expressing hERG.
Chain of human ether-à-go-go-related gene (hERG) potassium channel (Q12809 whole entry, looked up): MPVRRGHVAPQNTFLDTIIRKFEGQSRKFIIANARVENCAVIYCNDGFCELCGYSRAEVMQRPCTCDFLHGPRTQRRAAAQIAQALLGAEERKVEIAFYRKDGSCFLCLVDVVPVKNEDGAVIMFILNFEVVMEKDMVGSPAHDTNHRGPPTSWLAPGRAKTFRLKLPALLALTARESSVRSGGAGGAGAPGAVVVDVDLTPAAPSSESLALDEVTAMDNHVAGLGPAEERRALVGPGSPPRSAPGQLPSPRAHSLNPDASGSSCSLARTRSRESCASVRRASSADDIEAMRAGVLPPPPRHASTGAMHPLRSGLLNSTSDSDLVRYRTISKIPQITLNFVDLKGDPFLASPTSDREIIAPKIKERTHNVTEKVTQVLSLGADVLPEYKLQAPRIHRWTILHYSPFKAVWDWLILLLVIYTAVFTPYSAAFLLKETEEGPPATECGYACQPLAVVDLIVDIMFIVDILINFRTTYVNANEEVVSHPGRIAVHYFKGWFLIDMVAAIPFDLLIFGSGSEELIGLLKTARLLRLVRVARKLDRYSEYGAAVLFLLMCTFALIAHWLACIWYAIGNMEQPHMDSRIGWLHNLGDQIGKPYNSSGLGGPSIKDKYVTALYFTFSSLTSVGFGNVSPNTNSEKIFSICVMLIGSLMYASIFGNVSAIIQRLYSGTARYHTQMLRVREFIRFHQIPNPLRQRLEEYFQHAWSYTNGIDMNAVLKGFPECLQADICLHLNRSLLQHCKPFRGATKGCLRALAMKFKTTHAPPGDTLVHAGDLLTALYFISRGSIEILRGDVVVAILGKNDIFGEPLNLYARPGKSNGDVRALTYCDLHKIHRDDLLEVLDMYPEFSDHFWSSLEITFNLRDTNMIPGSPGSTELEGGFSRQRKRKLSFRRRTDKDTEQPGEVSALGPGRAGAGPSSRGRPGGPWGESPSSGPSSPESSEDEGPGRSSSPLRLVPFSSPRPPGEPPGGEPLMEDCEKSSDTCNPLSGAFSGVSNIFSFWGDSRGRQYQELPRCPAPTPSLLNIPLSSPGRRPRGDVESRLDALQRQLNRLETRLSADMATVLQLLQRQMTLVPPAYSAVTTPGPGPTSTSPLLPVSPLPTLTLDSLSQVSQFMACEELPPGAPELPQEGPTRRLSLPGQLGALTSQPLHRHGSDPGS
In the case of `Cc1ccc(-c2csc3nc4c5ccccc5c(NCCCN5CCOCC5)nn4c(=O)c23)cc1`, the “hERG current change (%, negative = inhibition) at 10uM” value came out at 2.7%.

Turning to `CC(c1ccccc1)n1c(-c2cccs2)nc2c(c(=O)c3ccccc3n2C)c1=O` (centres unmarked), the “hERG current change (%, negative = inhibition) at 10uM” value is recorded as -6.38%.

As to `Cc1ccc(S(=O)(=O)Nc2ccccc2C(=O)N2CCOCC2)cc1`, the “hERG current change (%, negative = inhibition) at 10uM” value came out at 16.2%.

`COc1ccc(NC(=O)CN(Cc2ccccc2)S(C)(=O)=O)c(OC)c1`: the “hERG current change (%, negative = inhibition) at 10uM” value amounted to 8.88%.

For `COc1ccc(-n2c(=O)c(CCC(=O)N3CCN(c4ccccc4O)CC3)nc3ccccc32)cc1`, the “hERG current change (%, negative = inhibition) at 10uM” value was -12.7%.

In the case of `Cc1cc(=O)oc(C)c1C(=O)O`, the “hERG current change (%, negative = inhibition) at 10uM” value was 21.5%.

As to `CSCc1c(C(=O)Nc2ccc(N3CCOCC3)cc2)oc2ccccc12`, the “hERG current change (%, negative = inhibition) at 10uM” value is on record as -3.24%.

For the compound `COc1cccc(Nc2nc(N)c([N+](=O)[O-])c(N3CCOCC3)n2)c1`, the “hERG current change (%, negative = inhibition) at 10uM” value is -14.2%.

As for `CCOc1ccc(CNC(=S)NCc2ccc(OCC)cc2)cc1`, the “hERG current change (%, negative = inhibition) at 10uM” value was 15.2%.

As to `Clc1ccc(-c2csc(-c3ccno3)n2)cc1`, the “hERG current change (%, negative = inhibition) at 10uM” value is 9.66%.

Regarding `Cc1nn(-c2ccccc2)c(Cl)c1/C=N/O`, the “hERG current change (%, negative = inhibition) at 10uM” value was found to be 5.77%.

For `COc1cc(CNn2c(C)n[nH]c2=S)cc(Cl)c1OCC(=O)NC(C)(C)C`, the “hERG current change (%, negative = inhibition) at 10uM” value is on record as 16.5%.

Consider `O=C(N/N=C/c1ccc([N+](=O)[O-])s1)c1cccc(Br)c1`, for which the “hERG current change (%, negative = inhibition) at 10uM” value came to 6.39%.

On to `Cc1sc(NC(=O)c2ccccc2)c(C(c2ccccn2)N2CCN(CCO)CC2)c1C` (centres unmarked), for which the “hERG current change (%, negative = inhibition) at 10uM” value is reported as -53.7%.

`Cc1ccccc1NC(=S)NC(NC(=O)CF)C(Cl)(Cl)Cl` (centres unmarked): the “hERG current change (%, negative = inhibition) at 10uM” value is 2.77%.

Take `O=C(CN1C(=O)C2CCCCC2C1=O)OCC(=O)c1ccc(Cl)s1` (centres unmarked): the “hERG current change (%, negative = inhibition) at 10uM” value is reported as -8.33%.

As for `CCN(CC(=O)Nc1c(F)cccc1F)C(=O)c1ccc(S(=O)(=O)N2CCC(C)CC2)cc1`, the “hERG current change (%, negative = inhibition) at 10uM” value was -21%.

Take `CC1(C)CC(OC(=O)c2ccco2)CC(C)(C)N1O.Cl`: the “hERG current change (%, negative = inhibition) at 10uM” value is on record as 5.26%.

As for `CCOC(=O)C(=O)NNc1ccccc1OC`, the “hERG current change (%, negative = inhibition) at 10uM” value was 13.1%.

For the compound `O=C(O)C[C@H]1c2cc(F)ccc2S(=O)(=O)N1C1CCCC1`, the “hERG current change (%, negative = inhibition) at 10uM” value was found to be 25.7%.

With `O=C(CN1CCC2(CC1)OCCO2)c1ccc2cc[nH]c2c1`, the “hERG current change (%, negative = inhibition) at 10uM” value is given as -15.2%.

Regarding `COc1ccc(C(=O)NNC(=O)C(=O)Nc2ccc(C)cc2)cc1`, the “hERG current change (%, negative = inhibition) at 10uM” value is reported as -3.87%.

Take `O=C(/C=C/c1ccc(S(=O)(=O)N2CCOCC2)cc1)N(CCO)Cc1ccccc1`: the “hERG current change (%, negative = inhibition) at 10uM” value is given as 8.71%.

In the case of `O=C(Nc1cccc(-c2cn3cccnc3n2)c1)c1ccc2c(c1)OCO2`, the “hERG current change (%, negative = inhibition) at 10uM” value is -18.3%.

In the case of `COc1cc([N+](=O)[O-])c2nccnc2c1`, the “hERG current change (%, negative = inhibition) at 10uM” value is reported as 17.7%.

On to `CCc1nnc(NC(=O)c2nc3nc(C)cc(C)n3n2)s1`, for which the “hERG current change (%, negative = inhibition) at 10uM” value was determined as 8.87%.

On to `Cc1ccc2nc(-c3cccnc3)c(NC3CCCCC3)n2c1`, for which the “hERG current change (%, negative = inhibition) at 10uM” value is 15%.

Regarding `COC(=O)c1cn(NC(=O)Cc2ccc(OC)c(OC)c2)c(=O)c2ccccc12`, the “hERG current change (%, negative = inhibition) at 10uM” value is reported as -1.78%.

With `CCOc1ccc(-c2c(C#N)c(N)nc3sc(C(=O)c4ccccc4)c(N)c23)cc1`, the “hERG current change (%, negative = inhibition) at 10uM” value is recorded as 8.12%.

Take `Cc1cc(C(=O)NNS(=O)(=O)c2ccc(C(C)(C)C)cc2)nn1C(C)(C)C`: the “hERG current change (%, negative = inhibition) at 10uM” value is on record as -10.5%.

Take `CCc1cc(C(=O)OC)c(NC(=O)CC2Sc3ccc(C(F)(F)F)cc3NC2=O)s1` (centres unmarked): the “hERG current change (%, negative = inhibition) at 10uM” value is recorded as 20.7%.

On to `CCOC(=O)Cc1csc(NC(=O)c2ccc(S(=O)(=O)N3CCCCC3)cc2)n1`, for which the “hERG current change (%, negative = inhibition) at 10uM” value is reported as -42.2%.

Consider `O=C1CCCc2nc(N3CCCCC3)sc21`, for which the “hERG current change (%, negative = inhibition) at 10uM” value came out at 9.36%.

In the case of `CCN(CC(=O)Nc1ccc(NC(C)=O)cc1)C(=O)c1ccc(NC2CC2)c([N+](=O)[O-])c1`, the “hERG current change (%, negative = inhibition) at 10uM” value was -46.1%.

`CC(=O)C1=C(C)N(Cc2ccco2)C(=O)C1(NC(=O)C1CCCCC1)C(F)(F)F` (centres unmarked): the “hERG current change (%, negative = inhibition) at 10uM” value came out at 1.21%.

Consider `COc1ccc(-c2nc(CS(=O)(=O)CC(=O)NCCCN3CCN(C)CC3)c(C)o2)cc1`, for which the “hERG current change (%, negative = inhibition) at 10uM” value is given as -2.65%.

Consider `O=C(Cc1ccc(Cl)cc1)NCCc1ccc(F)cc1`, for which the “hERG current change (%, negative = inhibition) at 10uM” value is listed as -2.82%.

On to `Cn1cnc(S(=O)(=O)NCc2ccc(Br)cc2)c1`, for which the “hERG current change (%, negative = inhibition) at 10uM” value is -5.05%.

`Cc1c(C(=O)NCc2ccc3c(c2)OCO3)oc2ccc(S(=O)(=O)N3CCC(C)CC3)cc12`: the “hERG current change (%, negative = inhibition) at 10uM” value is given as -5.97%.

`Cc1cccc2nc(CSc3nnnn3-c3ccccc3)cn12`: the “hERG current change (%, negative = inhibition) at 10uM” value was -41.5%.

`NS(=O)(=O)c1ccc(CNC(=O)c2ccc(Cl)c([N+](=O)[O-])c2)cc1`: the “hERG current change (%, negative = inhibition) at 10uM” value is on record as 7.39%.

Consider `O=C(Nc1nnc(-c2cccs2)o1)c1cccc(F)c1`, for which the “hERG current change (%, negative = inhibition) at 10uM” value came out at 11.8%.

With `Cc1cc(C)n2nc(SCc3nnc(SCc4ccccc4C)s3)nc2n1`, the “hERG current change (%, negative = inhibition) at 10uM” value was -64.9%.

`Cc1c2cnn(CC(=O)Nc3cccc(C(F)(F)F)c3)c(=O)c2c(C)n1Cc1ccccc1F`: the “hERG current change (%, negative = inhibition) at 10uM” value turned out to be 0.975%.
